Measured values from PubChem BioAssay AID651820 (National Center for Advancing Translational Sciences (NCATS), 2012).
Where “and” joins values, the source holds several entries; their conditions need not be identical. Identical values can stand only once. Screen size: about 340,000 compounds; about 12,000 (3.5%) were called active. This list was built around the results that the source calls inconclusive (neither active nor inactive); the mix of calls is not that of the screen. The call rests on the fitted dose curve; in most records, active means well fitted inhibition curve with a large enough effect; inconclusive means small, poorly fitted or top-dose-only effect, or another doubt; inactive means no such curve, though single readings can be large or run the other way. No potency is given beside an inconclusive call; the fits are too rough. Where a structure was tested more than once in an assay, its records may differ in their call.

Experiment: qHTS Assay for Inhibitors of Hepatitis C Virus (HCV)
Details: Huh7.5.1 HCVcc-Cre (HCVcc is cell-culture hepatitis C virus) infection, luciferase reporter, 44 h; series mostly up to 41.8 µM
Procedure, shortened: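 Infectious HCV cell culture screen: compound-treated cells (1,000/well, pre-plated 4 h) are infected with HCVcc-Cre at roughly 0.5 moi and grown 44 h. Infection is quantified by luciferase signal after 15 min substrate incubation at room temperature.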
Potency means the concentration at half of the fitted maximal effect; tags describe the fitted curve by direction and shape.

SMILES	Potency
Cc1cc(N2CCOCC2)nc(N2CCOCC2)n1	inactive
C/C(=N\S(=O)(=O)c1ccc(C)cc1)N1CCN(S(=O)(=O)c2ccccc2)C1	inactive
CCN(CC)CC(=O)N1CCCC(N2CCN(c3cccc(C(F)(F)F)c3)CC2)C1 (configuration not stated)	inconclusive [inhibitor, single point]
Cc1ccc(NC(=O)O/N=C2\CCCCC2c2ccc([N+](=O)[O-])cc2[N+](=O)[O-])cc1 (configuration not stated)	inconclusive [inhibitor, single point]
Cc1ccc(C(=O)N/C(=C/c2ccc(-c3cc(C(F)(F)F)ccc3Cl)o2)C(=O)NCc2cccnc2)cc1	inconclusive [inhibitor, single point]
CN1/C(=C\C(=O)Nc2cccc(Cl)c2)C(C)(C)c2ccccc21	active: 31.6 µM
Cc1cc(C)c(OCCCCN2CCNCC2)c(C)c1	inconclusive [inhibitor, single point]
CC1CCCCN1Cc1c(O)ccc2c(=O)c(-c3nc4ccccc4s3)c(N)oc12 (configuration not stated)	active: 10 µM
COC(=O)N/N=C\c1ccccc1OC/C=C/c1ccccc1	inconclusive [inhibitor, single point]
COc1ccc(NS(=O)(=O)c2cccc(C(=O)NCc3ccccc3CN3CCCC3)c2)cc1	active: 11.2 µM
Cc1cccc(-n2c(SC(C)C(=O)O)nc3sc4c(c3c2=O)CCCC4)c1 (configuration not stated)	inactive
Cc1cccc(OCC(=O)N/N=C/CC(C)c2ccccc2)c1C (configuration not stated)	inactive
COc1ccc(NC(=O)NNS(=O)(=O)c2cc(C)ccc2C)cc1OC	inactive
CCOC(=O)c1c(-c2cccc([N+](=O)[O-])c2)csc1NC(=O)C1CCCCC1	inconclusive [inhibitor, single point]
Cc1ccc(/C=N/NC(=O)c2cc(-c3cccnc3)nc3ccccc23)cc1	inconclusive [inhibitor, single point]
COc1ccc2c(c1)c1ncn(Cc3ccc(F)cc3)c(=O)c1n2C	inconclusive [inhibitor, single point]
COc1cc(/C=C2\SC(N)=NC2=O)ccc1O	inconclusive [inhibitor, single point]
CN(C)CC(C)(C)CNS(=O)(=O)c1ccc(Cl)c(Cl)c1	inconclusive [inhibitor, single point]
CC(C)(c1cc(Cl)c(O)c(CN2CCOCC2)c1)c1cc(Cl)c(O)c(CN2CCOCC2)c1	active: 3.16 µM
CN(C)S(=O)(=O)c1ccc2c(c1)nc(CCC(=O)NCCc1ccc(Cl)cc1)n2C	inconclusive [inhibitor, single point]
CC(C)Nc1nc(-c2ccccc2)nnc1-c1ccccc1	inactive
O=C(OC1CCCCC1=O)c1ccc(F)c(S(=O)(=O)N2CCOCC2)c1 (configuration not stated)	inactive
COc1cc(/C=C/C(=O)CC(=O)/C=C/c2ccc(O)c(OC)c2)ccc1O	inconclusive [inhibitor, single point]

SMILES	Potency
Cc1ccc(NC(=O)c2cc(C(=O)c3cc(Cl)ccc3O)cn(-c3ccc(C)cc3)c2=O)cc1	inconclusive [inhibitor, single point]
Cc1ccccc1C1=C/C(=C(\SS/C(C(=O)c2ccc(OCC(=O)O)c(Cl)c2Cl)=C2\C=C(c3ccccc3C)SS2)C(=O)c2ccc(OCC(=O)O)c(Cl)c2Cl)SS1	inconclusive [inhibitor, partial curve, poor fit]
Cn1c2c(c(=O)[nH]c1=O)C(NC(=O)c1ccco1)(C(F)(F)F)C(=O)N2 (configuration not stated)	inactive
Cc1ccc(N2C(=O)Nc3cc(Cl)c(Cl)cc3N2O)cc1Cl	inactive
CCOc1ccc(OCC)c(NC(=O)CN2CCN(c3cc(C)ccc3C)CC2)c1	inconclusive [inhibitor, single point]
Cc1cccc(CS(=O)(=O)c2nnc([C@H](Cc3ccccc3)NC(=O)OC(C)(C)C)o2)c1	inconclusive [inhibitor, partial curve, poor fit]
O=c1cc(-c2ccccc2)[nH]c2cc(Cl)ccc12	inactive
CCOC(=O)c1c(NC(=O)CSc2nnc(-c3ccccc3)n2CC)sc(C(C)=O)c1C	inconclusive [inhibitor, full curve, poor fit]
COCC(=O)N1CCCC(C(=O)c2ccc(-c3ccccc3)c(F)c2)C1 (configuration not stated)	inconclusive [inhibitor, single point]
O=C(CN1CCN(c2ccccc2O)CC1)Nc1ccc([N+](=O)[O-])cc1Br	inconclusive [inhibitor, single point]
CCN(CC)C(=O)c1sc2c(c1C)c(=O)n(-c1ccc(OC)cc1OC)c(=O)n2CC(=O)c1ccccc1	inconclusive [inhibitor, single point]
Cc1ccccc1NC(=O)c1cc(S(=O)(=O)c2ccccc2)ccc1Cl	inactive
O=C(c1ccc(CS(=O)c2cccc(Cl)c2)o1)N1CCOCC1 (configuration not stated)	inactive
O=C(Nc1ccc2oc(-c3cccnc3)nc2c1)c1ccc([N+](=O)[O-])o1	active: 2.51 µM
CCOC(=O)c1ccc(NC(=O)CN2C(=O)NC3(CCCCCCC3)C2=O)cc1	inconclusive [inhibitor, single point]
COc1ccc(S(=O)(=O)N(C)CC(=O)Nc2ccccc2OC)cc1C	inconclusive [inhibitor, full curve, poor fit]
CCC(C)c1ccc(S(=O)(=O)N2CCN(C(C)CC(=O)O)CC2)cc1 (configuration not stated)	inconclusive [inhibitor, full curve]
COc1ccc(CCNC(=O)Cn2c(=O)n(Cc3ccco3)c(=O)c3ccc(Cl)cc32)cc1OC	inactive and active: 11.2 µM
CSc1ccccc1NC(=O)c1ccccn1	inconclusive [inhibitor, single point]
CCc1ccc(CN2CCC(n3nccc3NC(=O)c3ccccc3C)CC2)cc1	active: 14.1 µM
CCc1ccc(OCC(=O)Nc2ccc(S(=O)(=O)N3CCOCC3)cc2)cc1	inconclusive [inhibitor, single point]
CCn1c(COc2ccc(Cl)cc2)nnc1SCc1nc2ccccc2[nH]1	inconclusive [inhibitor, single point]
COc1ccc(CNC(=O)C(C)OC(=O)Cn2cnc3c2c(=O)n(C)c(=O)n3C)cc1 (configuration not stated)	inactive

SMILES	Potency
O=[N+]([O-])c1c(C(Cl)Cl)nn(-c2ccc(Cl)cc2)c1N1CCCCC1	inconclusive [inhibitor, partial curve]
CCOC(=O)/C=c1/s/c(=C/c2ccc3cc(OC)ccc3c2)c(=O)n1CC(=O)NCC1CCCO1 (configuration not stated)	inconclusive [inhibitor, partial curve, poor fit]
Cc1ccc(NC(=S)c2ccncc2)c(C)c1	inconclusive [inhibitor, single point]
COc1ccc(C2C(C(C)=O)=C(C)N=c3s/c(=C/c4ccc5c(c4)OCO5)c(=O)n32)cc1 (configuration not stated)	inactive
CCOC(=O)c1ccc(NC(=O)N2CCc3ccccc32)cc1	inconclusive [inhibitor, single point]
O=C(N/N=C\c1cc(Br)ccc1O)c1ccc(S(=O)(=O)N2CCCCC2)cc1	active: 3.55 µM
CC1(CCC(=O)N2CCCC(N3CCN(c4ccc(F)cc4)CC3)C2)CC1 (configuration not stated)	inconclusive [inhibitor, single point]
O=C(/C=C/c1ccc(Cl)cc1Cl)c1ccc[nH]1	inactive
Cc1ccc(-c2cnc3cc(C)nn3c2)cc1	inactive
CCc1nnc(NC(=O)CCC(=O)N2CCN(CCOc3ccc(C)cc3)CC2)s1	inconclusive [inhibitor, partial curve]
CC(C)(C)c1ccc(OCCOCCn2cnc3ccccc3c2=O)cc1	inconclusive [inhibitor, single point]
CCc1ccccc1NC(=O)CN1CCN(C(=O)CNC(=O)c2ccc(-c3ccccc3)cc2)CC1	active: 11.2 µM
Cc1cc(C)c2c(=O)n(CC(=O)NCCCN3CCN(c4ccccc4F)CC3)sc2n1	inconclusive [inhibitor, single point]
COc1ccc(COCC(O)CN2CCC(CN3C(=O)c4cccc5cccc(c45)C3=O)CC2)cc1OC (configuration not stated)	inconclusive [inhibitor, full curve, poor fit]
Cc1ccc(S(=O)(=O)N(C)C)cc1NC(=O)C1CCCN(C(=O)c2ccc(Cl)cc2)C1 (configuration not stated)	inconclusive [inhibitor, single point]
Cc1cccc(OCC(=O)O/N=C(\N)Cc2ccc([N+](=O)[O-])cc2)c1	inconclusive [inhibitor, single point]
COc1ccc(CNS(=O)(=O)NCc2ccc(OC)c(OC)c2)cc1	inconclusive [inhibitor, single point]
Cc1cc(C(=O)CN2C(=O)C(=O)N(Cc3ccccc3)C2=O)c(C)n1-c1ccccc1F	inconclusive [inhibitor, full curve]
CCOc1ccc(C(=O)Nc2cccc(-c3nc4cccnc4o3)c2)cc1Cl	active: 11.2 µM
Cc1ccc(NC(=O)CCS(=O)(=O)c2ccc3c(c2)NC(=O)C(C)S3)nc1 (configuration not stated)	inactive
c1ccc(Sc2ncnc3c2oc2ccccc23)nc1	inconclusive [inhibitor, partial curve]
